The assay concerns RT16 CHO cells (hFRα). The note with it: mean (SEM).
Where [1] appears, read: read-out: IC50 RT16 (+FA), with 200 nM folic acid.
The mark [2] stands for this setting: read-out: IC50 RT16 (hFRα), 2 nM LCV, no folic acid.

Like-named read-outs stand apart in the source and are kept apart here. A value given as a limit tells only on which side of the number the result lay.

By IC50 is commonly meant the concentration needed to halve the response being measured. In the case of “(S)-2-({2-[4-(2-Amino-4-oxo-4,7-dihydro-3H-pyrrolo[2,3-d]pyrimidin-6-yl)-butyl]-thiophene-3-carbonyl}-amino)-pentanedioic acid [Compound 9]”, the 50% inhibitory concentration (IC50) is, setting by setting: under setting [1], greater than 1 µM; under setting [2], greater than 1 µM.

Take “(S)-2-({4-[4-(2-Amino-4-oxo-4,7-dihydro-3H-pyrrolo[2,3-d]pyrimidin-6-yl)-butyl]-thiophene-3-carbonyl}-amino)-pentanedioic acid [Compound 11]”: the half-inhibitory concentration (IC50) was greater than 1 µM under setting [1] and greater than 1 µM under setting [2].

(Values after PMC3288238 (Journal of Medicinal Chemistry, 2012).)
